# Measurements reported in PubChem BioAssay (NCATS).
# Several values for one entry are separate records, joined by “and”; a condition that tells them apart may be missing. Identical values can stand only once. The shares of active, inactive and inconclusive entries below differ from those in the screen. For part of these data: A potency beside an inconclusive call is a rough fit, not a confirmed value. The source holds several records for some structures; these can differ, active in one and inactive in another. Activity calls are given as the source filed them. Calls follow the shape of the dose curve; as a rule, active = well fitted curve in the direction sought with a large enough effect; inconclusive = small, poorly fitted or top-dose-only effect, or another doubt; inactive = no such curve, though single readings can be large; an effect the other way counts as inactive or inconclusive.
# Legend:
# CASKI = experiment: Primary qHTS to identify gynecologic anti-cancer compounds using libraries of approved drugs and bioactive compounds (AID 1345084); settings: Gynecologic cancer cell panel viability, ATPlite luminescence, 48 h; series mostly up to 57.5 µM; also: nearly all actives have a fitted effect of over 55% in size
# Summary of the method: (§1)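 Cells, 1,000 per well, plated 16 h, then exposed 48 h at 37 C to compounds. Viability by ATPlite luminescence after 15 min at room temperature.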
# SKOV3 = experiment: as above; settings: Gynecologic cancer cell panel viability, ATPlite luminescence, 48 h; series mostly up to 57.5 µM
# Summary of the method: as §1
# Tov-21-G = experiment: as above; settings: Gynecologic cancer cell panel viability, ATPlite luminescence, 48 h; series mostly up to 57.5 µM
# Summary of the method: as §1
# Tov112D = experiment: as above; settings: Gynecologic cancer cell panel viability, ATPlite luminescence, 48 h; series mostly up to 57.5 µM
# Summary of the method: as §1
# Es-2 = experiment: as above; settings: Gynecologic cancer cell panel viability, ATPlite luminescence, 48 h; series mostly up to 57.5 µM
# Summary of the method: as §1
# Hek293T = experiment: as above; settings: Gynecologic cancer cell panel viability, ATPlite luminescence, 48 h, control line for the selectivity index; series mostly up to 57.5 µM
# Summary of the method: as §1
# PA-1 = experiment: as above; settings: Gynecologic cancer cell panel viability, ATPlite luminescence, 48 h; series mostly up to 57.5 µM
# Summary of the method: as §1
# HeLa = experiment: as above; settings: Gynecologic cancer cell panel viability, ATPlite luminescence, 48 h; series mostly up to 57.5 µM
# Summary of the method: as §1
# OV90 = experiment: as above; settings: Gynecologic cancer cell panel viability, ATPlite luminescence, 48 h; series mostly up to 57.5 µM
# Summary of the method: as §1
# JEG-3 = experiment: as above; settings: Gynecologic cancer cell panel viability, ATPlite luminescence, 48 h; series mostly up to 57.5 µM
# Summary of the method: as §1
# [1] = Drug repurposing screens with cells derived from glioblastoma tumor samples (AID 1345199); settings: GBM patient neurospheres viability, ATP luminescence, 48 h; Potency: tumour line A unless noted; series mostly up to 46 µM; also: nearly all actives have a fitted effect of over 40% in size
# Summary of the method: (§2)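 Primary testing used CD133+ neurospheres from four GBM patients, seven concentrations, 48 h exposure and ATP-based viability; confirmation added three slower-growing patient lines.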
# astro = experiment: as above; settings: viability, ATP luminescence, 48 h; series mostly up to 45.9 µM
# Summary of the method: as §2
# Potency is read from the fitted curve at half-maximal effect; tags tell the direction and shape of the fitted curve.
smiles,measurement,setting,value
C=CC(=O)Nc1cccc(Oc2nc(Nc3ccc(N4CCN(C)CC4)cc3OC)ncc2Cl)c1,Potency,CASKI,active: 17.8 µM
same,Potency,SKOV3,active: 15.8 µM
same,Potency,Tov-21-G,"inconclusive: 25.1 µM [cytotoxic, single point]"
same,Potency,Tov112D,"inconclusive: 35.5 µM [cytotoxic, single point]"
Cc1cc(-c2ncc(CC(=O)Nc3ccc(-c4cnccn4)cn3)cc2C)ccn1,Potency,Es-2,"inconclusive: 28.2 µM [cytotoxic, partial curve, poor fit]"
same,Potency,Hek293T,"inconclusive: 25.1 µM [cytotoxic, partial curve, poor fit]"
same,Potency,PA-1,"inconclusive: 8.91 µM [cytotoxic, partial curve, poor fit]"
same,Potency,SKOV3,active: 39.8 µM
CCCS(=O)(=O)Nc1ccc(F)c(C(=O)c2c[nH]c3ncc(-c4ccc(Cl)cc4)cc23)c1F,Potency,Es-2,"inconclusive: 22.4 µM [cytotoxic, partial curve, poor fit]"
same,Potency,PA-1,active: 10 µM
same,Potency,Tov-21-G,"inconclusive: 39.8 µM [cytotoxic, single point]"
Cn1cc(-c2[nH]c3cc(NC(=O)[C@H](N)C4CCCCC4)cc4c3c2C=NNC4=O)cn1,Potency,Es-2,"inconclusive: 22.4 µM [cytotoxic, partial curve, poor fit]"
same,Potency,HeLa,"inconclusive: 12.6 µM [cytotoxic, partial curve]"
same,Potency,Hek293T,"inconclusive: 39.8 µM [cytotoxic, single point]"
same,Potency,OV90,"inconclusive: 7.94 µM [cytotoxic, full curve]"
same,Potency,PA-1,"inconclusive: 25.1 µM [cytotoxic, single point]"
same,Potency,SKOV3,active: 7.08 µM
same,Potency,Tov-21-G,active: 10 µM
same,Potency,Tov112D,"inconclusive: 31.6 µM [cytotoxic, single point]"
Cc1cc(C(C)(C)C)cc(C)c1CC1=NCCN1,Potency,Es-2,"inconclusive: 25.1 µM [cytotoxic, single point]"
same,Potency,HeLa,"inconclusive: 1 µM [cytotoxic, full curve, poor fit]"
same,Potency,Hek293T,"inconclusive: 31.6 µM [cytotoxic, single point]"
same,Potency,JEG-3,inactive
same,Potency,OV90,"inconclusive: 31.6 µM [cytotoxic, single point]"
same,Potency,PA-1,"inconclusive: 39.8 µM [cytotoxic, partial curve, poor fit]"
same,Potency,SKOV3,"inconclusive: 7.08 µM [rising, single point]"
same,Potency,[1],"inconclusive: 10 µM [inhibitor, partial curve]"
CN(c1nccc(=O)[nH]1)C1CCN(c2nc3ccccc3n2Cc2ccc(F)cc2)CC1,Potency,Es-2,inconclusive: 0.562 µM
same,Potency,HeLa,inconclusive: 0.0891 µM
same,Potency,SKOV3,inconclusive: 100 nM and inactive
same,Potency,Tov-21-G,inconclusive: 316 µM
same,Potency,[1],"inconclusive: 31.6 µM [inhibitor, partial curve, poor fit]"
CCOC(=O)c1ncn2c1CN(C)C(=O)c1cc(F)ccc1-2,Potency,Es-2,inactive
same,Potency,[1],"inconclusive: 35.5 µM [inhibitor, partial curve]"
Fc1ccc([C@@H]2CCNC[C@H]2COc2ccc3c(c2)OCO3)cc1,Potency,Es-2,"inconclusive: 28.2 µM [cytotoxic, single point]"
same,Potency,OV90,"inconclusive: 7.94 µM [cytotoxic, full curve]"
same,Potency,SKOV3,"inconclusive: 25.1 µM [cytotoxic, partial curve, poor fit]"
same,Potency,astro,active: 22.4 µM
Nc1nc(F)nc2c1ncn2[C@@H]1O[C@H](CO)[C@@H](O)[C@@H]1O,Potency,Es-2,"inconclusive: 39.8 µM [cytotoxic, single point] and inconclusive: 25.1 µM [cytotoxic, single point]"
same,Potency,OV90,inactive
same,Potency,SKOV3,inactive
same,Potency,Tov-21-G,"inconclusive: 11.2 µM [cytotoxic, partial curve] and inconclusive: 398 µM"
same,Potency,Tov112D,"active: 17.8 µM and inconclusive: 39.8 µM [cytotoxic, single point]"
same,Potency,[1],active: 10 µM
CC1=C(C(=O)Nc2cc3cn[nH]c3cc2F)C(c2ccc(Cl)cc2F)N=C(c2ccnc(Cl)c2)N1 (centres undefined),Potency,HeLa,"inconclusive: 14.1 µM [cytotoxic, single point]"
O=C(O)CCNC(=O)c1ccc(N=Nc2ccc(O)c(C(=O)O)c2)cc1,Potency,Es-2,inactive
same,Potency,PA-1,inactive
same,Potency,SKOV3,"inconclusive: 11.2 µM [rising, partial curve]"
same,Potency,astro,inactive
NC(=O)c1cnccn1,Potency,Es-2,inactive
same,Potency,Hek293T,inactive
same,Potency,JEG-3,inactive
same,Potency,SKOV3,inactive
same,Potency,[1],inactive
